Experimental data from paper PMC4336329 (PLoS ONE, 2015).
Screen size: about 310,000 compounds; about 2,200 (0.71%) showed an effect of 50% or more. Effects have a minus sign here. This is one part of the list.

Each molecule was assayed against human ether-à-go-go-related gene (hERG) potassium channel (human, UniProt Q12809) (assay: primary screen, population patch clamp on CHO cells stably expressing hERG).
Sequence of human ether-à-go-go-related gene (hERG) potassium channel (Q12809 whole entry, looked up): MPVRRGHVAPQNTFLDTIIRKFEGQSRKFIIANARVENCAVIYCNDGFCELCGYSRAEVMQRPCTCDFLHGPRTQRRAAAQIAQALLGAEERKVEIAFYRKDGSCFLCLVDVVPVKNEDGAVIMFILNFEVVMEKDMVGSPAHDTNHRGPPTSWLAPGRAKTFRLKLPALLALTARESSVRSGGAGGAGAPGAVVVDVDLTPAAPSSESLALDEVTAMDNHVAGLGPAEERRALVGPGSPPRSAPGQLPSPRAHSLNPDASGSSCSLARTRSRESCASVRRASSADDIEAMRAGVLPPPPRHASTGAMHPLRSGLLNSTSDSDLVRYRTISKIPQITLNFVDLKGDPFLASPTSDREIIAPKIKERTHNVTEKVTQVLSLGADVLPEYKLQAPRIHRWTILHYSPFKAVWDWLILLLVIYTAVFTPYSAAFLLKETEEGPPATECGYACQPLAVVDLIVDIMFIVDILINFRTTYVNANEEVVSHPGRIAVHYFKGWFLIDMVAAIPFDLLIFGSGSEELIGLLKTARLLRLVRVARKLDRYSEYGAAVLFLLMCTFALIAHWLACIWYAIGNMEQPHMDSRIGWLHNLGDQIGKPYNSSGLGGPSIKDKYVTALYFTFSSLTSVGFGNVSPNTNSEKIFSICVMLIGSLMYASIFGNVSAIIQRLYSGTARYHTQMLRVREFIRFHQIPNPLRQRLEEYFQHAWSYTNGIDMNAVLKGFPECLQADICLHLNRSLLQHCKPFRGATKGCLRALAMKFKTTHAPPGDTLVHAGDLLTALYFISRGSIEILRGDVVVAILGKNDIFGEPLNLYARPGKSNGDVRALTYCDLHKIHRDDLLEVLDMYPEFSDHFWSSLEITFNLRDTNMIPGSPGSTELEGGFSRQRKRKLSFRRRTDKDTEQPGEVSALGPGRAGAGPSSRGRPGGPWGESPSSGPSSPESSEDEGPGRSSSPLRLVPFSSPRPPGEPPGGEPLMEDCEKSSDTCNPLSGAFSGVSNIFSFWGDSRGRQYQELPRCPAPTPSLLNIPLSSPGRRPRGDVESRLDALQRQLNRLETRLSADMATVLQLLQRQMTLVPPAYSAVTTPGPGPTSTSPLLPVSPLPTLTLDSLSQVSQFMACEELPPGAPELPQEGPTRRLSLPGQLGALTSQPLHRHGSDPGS

Row | SMILES | hERG current change (%, negative = inhibition) at 1uM
1 | CCOc1ccccc1N(CC(=O)Nc1ccccc1C(=O)OC)S(C)(=O)=O | 12.7%
2 | COc1cccc(CNCC(=O)N2C(C)CCCC2C)c1.O=C(O)C(=O)O (centres unmarked) | 5.9%
3 | CC(=O)c1ccc(N2CCN(S(=O)(=O)c3cc4c(cc3C)NC(=O)CO4)CC2)cc1 | 9.17%
4 | CC(O)CC(C)O (centres unmarked) | 19.3%
5 | CC1(C)Oc2ccc3ccc(=O)oc3c2/C(=C/NCCN/C=C2\C(=O)C(C)(C)Oc3ccc4ccc(=O)oc4c32)C1=O | 2.08%
6 | Cc1ccc(Oc2cc(C)nc(-c3ccccc3O)n2)cc1 | -0.342%
7 | COc1ccc(NC(=S)NC2CC3CCC(C2)N3Cc2ccco2)cc1 (centres unmarked) | 0.388%
8 | Cc1noc(C)c1C(=O)OC(C)C(=O)N(C)c1ccccc1 (centres unmarked) | 8.99%
9 | O=C(CS(=O)(=O)c1ccccc1)c1cc2cc(F)ccc2oc1=O | 14.2%
10 | COC(=O)c1c(NC(C)=O)sc(C(=O)Nc2ccccc2F)c1C | 5.43%
11 | CCOP(=O)(c1ccccc1)c1nc(-c2ccc(F)cc2)oc1N1CCCCC1 (centres unmarked) | -2.04%
12 | Cc1ccc(N2C(=O)NC(=O)C3(Cc4ccccc4N4CCN(c5ccccc5)CC43)C2=O)cc1 (centres unmarked) | 2.59%
13 | CC1(C)Cc2ccccc2C(NN=C2CCCC2)=N1 | -5.24%
14 | Cc1ccc(NC(=O)c2sc3ncn(CC(=O)N4CCOCC4)c(=O)c3c2C)c(Br)c1 | 10.6%
15 | Cc1cnc(NC(=O)c2ccccn2)s1 | 14.6%
16 | N#Cc1c(-c2ccccc2)ccnc1Oc1ccccc1 | 4.33%
17 | CC(C)N(C(=O)Cc1ccccc1[N+](=O)[O-])C(C)C | 11.7%
18 | O=C(Cn1c(=O)oc2ccccc21)Nc1ccc(S(=O)(=O)N2CCCCC2)cc1 | 10.8%
19 | COc1ccc(C2C(C(=O)c3cccs3)=C(O)C(=O)N2Cc2cccnc2)cc1OC (centres unmarked) | 5.94%
20 | CC(C)CCNC(=O)c1ccc2c(c1)N(Cc1ccccc1)C(=O)CS2=O (centres unmarked) | 2.78%
21 | COc1ccc(C(=O)NC2CCCc3ccccc32)cc1S(=O)(=O)N1CCOCC1 (centres unmarked) | 8.99%
22 | CC(=O)Nc1nc2ccccc2n1Cc1ccc(Cl)cc1 | 7.97%
23 | CCC(CO)NCC(O)COCc1ccc2c(c1)OCO2 (centres unmarked) | 15.8%

Row | SMILES | hERG current change (%, negative = inhibition) at 1uM
24 | Cc1ccc(C(c2nnnn2C2CCCC2)N2c3ccccc3CC2C)cc1.Cl (centres unmarked) | 14.8%
25 | Cc1ccc(Cn2ccc(NC(=O)C3C4CCC(C4)C3C(=O)O)n2)cc1 (centres unmarked) | 5.99%
26 | CCN(CC(=O)NCc1cccs1)S(=O)(=O)c1cccc(C(C)=O)c1 | 12.1%
27 | CC(=O)N1CCc2cc(S(=O)(=O)CCC(=O)Nc3c(C)n(C)n(-c4ccccc4)c3=O)ccc21 | -1.5%
28 | COC(=O)c1cc(NC(=O)/C=C/c2ccccc2)ccc1O | 13.5%
29 | Cc1ccc(NC(=O)C2CCCN(C(=O)c3ccc(Cl)cc3)C2)cc1C (centres unmarked) | 21.1%
30 | O=C(NCc1ccc(F)cc1)c1cccnc1 | 14.5%
31 | COC(=O)CN1C(=O)[C@H]2[C@@H](/C=C/c3ccccc3)N3C(=O)CN(CCO)C(=O)[C@@]3(Cc3ccccc3)[C@H]2C1=O | 4.37%
32 | COC(=O)NC1CCC(CC2CCC(NC(=O)OC)CC2)CC1 (centres unmarked) | 15%
33 | CCOC(=O)C1(Cc2ccccc2)CCCN(C(=O)c2cnn(CC)c2)C1 (centres unmarked) | 9.7%
34 | O=C(NNC(=S)NC(=O)c1cccs1)c1cccnc1 | 15.7%
35 | CCc1ccc(C(C)NC(=O)c2cc(C)oc2C)cc1 (centres unmarked) | 12.2%
36 | Cn1c2ccccc2c2cc(C(=O)NNC(=O)CCl)sc21 | -5.75%
37 | O=C(CCC(=O)N(CC(=O)NC1CCCC1)Cc1ccccc1)Nc1nccs1 | 12.2%
38 | O=C(Nc1cccc(S(=O)(=O)N2CCCCC2)c1)c1ccco1 | 9.94%
39 | COc1ccc(C2C(C(C)=O)=C(O)C(=O)N2CCc2c[nH]c3ccccc23)cc1 (centres unmarked) | 10.6%
40 | C=CCn1c(C)cc(C2=NNC(=NC(C)(C)C)SC2)c1C | 12.2%
41 | COc1cc(S(=O)(=O)n2ccc(C)n2)ccc1Cl | -1.94%
42 | COCCN(C(=O)COC(=O)/C=C/c1nc2ccccc2s1)c1c(N)n(Cc2ccccc2)c(=O)[nH]c1=O | -4.73%
43 | COc1ccc(C(=O)CSc2nnc(CN3CCCC3)n2-c2ccc(F)cc2)c(OC)c1 | 6.06%
44 | COC(=O)c1ccccc1NC(=O)CCc1ccccc1 | 8.65%
45 | O=C(NC1CC1)c1ccc(C2SCC(=O)N2Cc2ccccc2)cc1 (centres unmarked) | 8.75%
46 | c1ccc(C2CC3CC(c4ccccc4)N2O3)cc1 (centres unmarked) | 17.1%

Row | SMILES | hERG current change (%, negative = inhibition) at 1uM
47 | C/C(CC(=O)Nc1ccc2c(c1)OCCO2)=N\NC(=O)COc1ccc(Cl)c(C)c1 | 14%
48 | CCc1ccc(NC(=O)CCC(=O)c2ccccc2)cc1 | 10.7%
49 | N#Cc1c(N)nc2c(c1-c1cccs1)CCCC2 | 0.28%
50 | CCOC(=O)c1ccc(NC(=O)c2ccc(CN3CCOCC3)cc2)cc1 | 8.66%
51 | O=C1CCCN1c1ccc(S(=O)(=O)NCCOc2ccccc2)cc1 | 7.44%
52 | O=C(NC12CC3CC(CC(C3)C1)C2)N(Cc1ccccc1)Cc1ccncc1 | 3.57%
53 | CC(=O)c1cccc(NC(=O)CC(C)n2ccnc2)c1 (centres unmarked) | 13.6%
54 | CCc1ccc(NC(=O)C(C)OC(=O)c2cccc(S(=O)(=O)N3CCc4ccccc4C3)c2)cc1 (centres unmarked) | 4.49%
55 | O=C(c1cc(-c2ccccc2)nn1-c1ccccc1)N1CCN(S(=O)(=O)c2c(F)cccc2F)CC1 | -0.34%
56 | O=C(CSc1n[nH]c(-c2cccnc2)n1)Nc1ccc(Cl)cc1 | 8.99%
57 | Cn1nc(C(=O)Nc2ccc(S(=O)(=O)N3CCCCC3)cc2)c2ccccc2c1=O | -0.977%
58 | O=C(CSc1n[nH]c(-c2ccccc2)n1)Nc1ccc(Br)cn1 | 11.4%
59 | COC(=O)c1ccc(CSc2nnc3sc4ccccc4n23)o1 | 6.33%
60 | Cl.NCCCCCC(=O)N/N=C/c1ccc2nccnc2c1 | 14.3%
61 | N#CCCN(Cc1cccnc1)C(=S)NCc1ccco1 | 1.66%
62 | COc1cc(NC(=O)COC(=O)CNC(=O)c2ccc(Cl)cc2)c(C)cc1[N+](=O)[O-] | 11.7%
63 | CC(C)c1ccc(OCC(=O)N2CCCCCC2)c(Br)c1 | 11.7%
64 | Cc1nnc(SCC(=O)Nc2sc3c(c2C#N)CCCCC3)n1N | 5.12%
65 | Cc1nnc(SCc2ccc(Cl)cc2)n1CC1CCCO1 (centres unmarked) | 13.4%
66 | COc1cccc2cc(C(=O)NCc3ccccc3)c(=N)oc12 | 17.6%
67 | CC1CCCN(c2oc(-c3cccc4ccccc34)nc2C#N)C1 (centres unmarked) | 17%
68 | Cc1ccc2[nH]c(=O)c(COC(=O)c3cccs3)cc2c1 | 0.844%
69 | CC1Cc2ccccc2N1C(=O)COC(=O)c1ccc(Br)o1 (centres unmarked) | 14.9%

Row | SMILES | hERG current change (%, negative = inhibition) at 1uM
70 | COCc1cc(C)nc(SCC(=O)Nc2ccc(N3CCOCC3)cc2)c1C#N | 0.339%
71 | COc1ccc(C(=O)NC2CC3CCCC(C2)N3CC(C)C)cc1 (centres unmarked) | -13.5%
72 | CCOC(=O)COc1ccc(S(=O)(=O)N2CCc3ccccc3C2)cc1 | 8.74%
73 | O=C(NC12CC3CC(CC(C3)C1)C2)c1cccc(OC(F)F)c1 | -25.2%
74 | CCOC(=O)c1sc2nc(C)c([N+](=O)[O-])c(COC)c2c1N | 2.43%
75 | O=C(c1cccc(S(=O)(=O)N2CCN(c3ccc(F)cc3)CC2)c1)N1CCCCCCC1 | -23%
76 | COc1cccc(-n2cnc3c(sc4nc(N5CCOCC5)c5c(c43)CCCC5)c2=O)c1 | 12.3%
77 | O=C(c1cccs1)N(C(=O)c1cccs1)c1ccc(Br)cn1 | 1.3%
78 | CC1CN(CCc2ccccc2)C(C)C/C1=N/O (centres unmarked) | 12.1%
79 | CCOc1ccc(S(=O)(=O)Nc2ccc(F)cc2)c(C)c1C | 4.33%
80 | COc1ccc(C(=O)Nc2cccc(-c3ccc(N4CCOCC4)nn3)c2)cc1 | 0.554%
81 | C/C(Nc1ccccc1C(F)(F)F)=C1/CCOC1=O | 11.7%
82 | CCc1nc2oc3cc(OC)ccc3c(=O)c2c(=O)n1Cc1ccco1 | -11.4%
83 | Cc1ccc(CNC(=O)C2CCC(=O)N2Cc2ccccc2Cl)cc1 (centres unmarked) | 11.5%
84 | COCCCNC(=S)N(CCO)Cc1cc2cc3c(cc2[nH]c1=O)OCO3 | 7.94%
85 | Cc1ccc(C(=O)Nc2c(C)n(C)n(-c3ccccc3)c2=O)cc1 | 4.16%
86 | Cc1c(Cc2ccccc2)c(=O)oc2cc(OCC(=O)NCC3CCC(C(=O)O)CC3)ccc12 (centres unmarked) | 15.7%
87 | NC(=O)C1CCN(CCS(=O)(=O)c2ccc(Cl)cc2)CC1 | 8.49%
88 | CCC(C)c1ccccc1OCCCCN1CCCC1 (centres unmarked) | 0.625%
89 | CC12CCC(c3c(C(=O)Nc4nccs4)nn(-c4ccccc4)c31)C2(C)C (centres unmarked) | 3.91%
